# Among all 360,000 compounds or so, about 16,000 (4.4%) were called active. The shares of active, inactive and inconclusive entries below differ from those in the screen. The call rests on the fitted dose curve; in most records, active means well fitted inhibition curve with a large enough effect; inconclusive means small, poorly fitted or top-dose-only effect; inactive means no such curve, though single readings can be large or run the other way. Where the call is inconclusive, the potency comes from a doubtful curve fit.
# Target: Bromodomain adjacent to zinc finger domain protein 2B (Homo sapiens) (UniProt Q9UIF8)
# Test: qHTS Assay for Inhibitors of BAZ2B; further: nearly all actives have a fitted effect of over 60% in size
# Conditions: AlphaScreen BAZ2B-H3K14Ac peptide displacement; activity change, negative = inhibition: at 114 µM (top of the series)
# Summary of the method: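 Compounds, titrated to a top concentration of 110 uM, were incubated 30 min at room temperature with preformed BAZ2B/acetyl-K14 H3 peptide complex (50 nM each). Proximity signal was measured by AlphaScreen after 20 min with beads.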
# On the % scale 0 is the no-effect control and ±100 the full control effect; potency means the concentration at half of the fitted maximal effect; tags describe the fitted curve by direction and shape.
# UniProt Q9UIF8, sequence (Q9UIF8 whole entry, looked up, the tested form may be a part): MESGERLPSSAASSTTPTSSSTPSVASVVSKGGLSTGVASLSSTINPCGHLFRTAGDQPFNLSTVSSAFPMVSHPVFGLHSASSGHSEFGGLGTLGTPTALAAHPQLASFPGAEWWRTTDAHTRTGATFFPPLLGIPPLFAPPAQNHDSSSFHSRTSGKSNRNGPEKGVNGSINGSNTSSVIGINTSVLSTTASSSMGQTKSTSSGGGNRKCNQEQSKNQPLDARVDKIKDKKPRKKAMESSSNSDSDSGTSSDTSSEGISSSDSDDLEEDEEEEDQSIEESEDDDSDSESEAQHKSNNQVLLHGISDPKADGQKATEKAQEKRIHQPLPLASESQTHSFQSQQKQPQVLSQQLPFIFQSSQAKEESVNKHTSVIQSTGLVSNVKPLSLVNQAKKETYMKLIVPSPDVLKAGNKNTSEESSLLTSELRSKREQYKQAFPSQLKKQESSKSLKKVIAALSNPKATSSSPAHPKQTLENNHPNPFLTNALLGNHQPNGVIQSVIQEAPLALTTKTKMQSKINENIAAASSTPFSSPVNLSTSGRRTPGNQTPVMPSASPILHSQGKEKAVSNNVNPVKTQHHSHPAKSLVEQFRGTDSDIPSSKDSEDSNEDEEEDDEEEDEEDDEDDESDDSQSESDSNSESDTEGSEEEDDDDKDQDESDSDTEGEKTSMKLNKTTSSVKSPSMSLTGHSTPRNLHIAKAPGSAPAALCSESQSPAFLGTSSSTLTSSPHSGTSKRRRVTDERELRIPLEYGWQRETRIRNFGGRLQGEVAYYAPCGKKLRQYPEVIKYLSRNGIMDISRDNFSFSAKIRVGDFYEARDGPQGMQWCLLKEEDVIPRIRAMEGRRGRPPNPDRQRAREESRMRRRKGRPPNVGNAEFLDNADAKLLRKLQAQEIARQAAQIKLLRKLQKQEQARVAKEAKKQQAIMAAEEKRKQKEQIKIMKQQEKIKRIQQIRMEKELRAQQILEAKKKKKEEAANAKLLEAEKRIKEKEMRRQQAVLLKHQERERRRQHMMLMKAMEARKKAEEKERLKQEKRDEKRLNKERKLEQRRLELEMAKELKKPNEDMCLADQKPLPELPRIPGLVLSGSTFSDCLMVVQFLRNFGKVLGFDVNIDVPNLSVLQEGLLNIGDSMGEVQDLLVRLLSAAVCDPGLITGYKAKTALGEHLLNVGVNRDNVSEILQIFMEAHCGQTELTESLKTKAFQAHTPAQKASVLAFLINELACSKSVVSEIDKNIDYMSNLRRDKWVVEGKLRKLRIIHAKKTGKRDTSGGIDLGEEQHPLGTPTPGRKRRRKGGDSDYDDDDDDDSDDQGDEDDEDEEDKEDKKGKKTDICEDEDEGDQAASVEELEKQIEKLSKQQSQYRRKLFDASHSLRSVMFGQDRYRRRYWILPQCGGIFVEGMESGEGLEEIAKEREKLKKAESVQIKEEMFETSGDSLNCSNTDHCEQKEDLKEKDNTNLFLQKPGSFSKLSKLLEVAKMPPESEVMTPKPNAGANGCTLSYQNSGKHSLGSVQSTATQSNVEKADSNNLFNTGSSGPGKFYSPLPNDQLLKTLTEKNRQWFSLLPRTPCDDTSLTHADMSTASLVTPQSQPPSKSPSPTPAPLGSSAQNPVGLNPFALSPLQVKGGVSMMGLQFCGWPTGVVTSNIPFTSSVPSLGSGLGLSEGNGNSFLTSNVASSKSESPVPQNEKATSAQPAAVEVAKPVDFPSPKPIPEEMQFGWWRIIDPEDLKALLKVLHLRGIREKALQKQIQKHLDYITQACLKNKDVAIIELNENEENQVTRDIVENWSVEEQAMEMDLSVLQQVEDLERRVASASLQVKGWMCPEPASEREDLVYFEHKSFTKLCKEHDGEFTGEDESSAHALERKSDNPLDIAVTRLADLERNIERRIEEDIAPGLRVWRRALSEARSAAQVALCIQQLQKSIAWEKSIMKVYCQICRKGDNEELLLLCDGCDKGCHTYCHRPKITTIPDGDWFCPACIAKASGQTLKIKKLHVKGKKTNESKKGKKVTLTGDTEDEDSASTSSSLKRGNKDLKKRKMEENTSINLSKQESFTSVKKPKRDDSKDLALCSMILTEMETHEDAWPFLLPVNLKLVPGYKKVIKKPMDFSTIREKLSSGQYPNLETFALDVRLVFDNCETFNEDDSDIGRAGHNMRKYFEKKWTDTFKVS
Compound,Potency,"activity change, negative = inhibition"
CC1=NN(c2nc(-c3ccccc3)cs2)C(=O)C1N=Nc1ccccc1 (stereo not drawn),inactive,–
Cc1ccc(N2CCN(CC(O)COc3cccc4ccccc34)CC2)cc1 (stereo not drawn),active: 35.5 µM,–
O=C(c1cn(-c2ccccc2)nc1-c1ccc(Cl)cc1)N1CCOCC1,"inconclusive: 100 µM [inhibitor, single point]",–
O=C(N/N=C/C=C\c1ccccc1[N+](=O)[O-])c1cc(-c2ccc3ccccc3c2)n[nH]1,"inconclusive: 89.1 µM [inhibitor, single point]",–
COc1ccc2c(c1)c(-c1csc(N)n1)c(C)n2C,active: 79.4 µM,–
COc1ccc(-n2c(CCC(=O)O)ccc2-c2ccccc2)c(OC)c1,"inconclusive: 70.8 µM [inhibitor, partial curve]",–
O=C(O)C1CSC2(CCN(Cc3ccccc3)CC2)N1 (stereo not drawn),active: 56.2 µM,–
Cc1ccccc1NC(=O)CSc1nnc(-c2ccco2)c(-c2ccco2)n1,active: 25.1 µM,–
COc1ccc(CCNCC(O)COc2cccc(Br)c2)cc1 (stereo not drawn),inactive,–
c1csc(CNc2ccc3c(c2)OCCO3)c1,active: 50.1 µM,–
COc1ccccc1Nc1nc2c(s1)CCC2,inactive,–
CCSc1nnc(NC(=O)CSc2nccn2-c2cc(C)cc(C)c2)s1,"inconclusive: 39.8 µM [inhibitor, partial curve]",–
O=C1c2oc3ccccc3c(=O)c2C(c2cccs2)N1CCCN1CCOCC1 (stereo not drawn),"inconclusive: 79.4 µM [inhibitor, single point]",–
CN(CCOc1ccccc1Cl)Cc1ccccc1,active: 56.2 µM,–
O=C(CCCc1c[nH]c2ccccc12)Nc1ncccc1O,active: 56.2 µM,–
CCOc1ccc(C(=O)Nc2ccc(-c3nc4ccccc4s3)c(C)c2)cc1OCC,inactive,–
COc1ccc(/C=C(/C#N)C(=O)Nc2cccc([N+](=O)[O-])c2)cc1C(=O)O,"inconclusive: 44.7 µM [inhibitor, partial curve]",–
CCc1cc(C(c2ccncc2)N2CCN(C)CC2)c(NC(=O)c2ccccc2)s1 (stereo not drawn),"inconclusive: 89.1 µM [inhibitor, single point]",–
COc1ccc2[nH]cc(CCNC(=O)c3cnn(-c4ccccc4Cl)c3C3CCN(C(=O)OC(C)(C)C)CC3)c2c1,"inconclusive: 39.8 µM [inhibitor, single point]",–
COc1ccc(OC)c(NC(=O)CSc2nncc3ccc(OC)c(OC)c23)c1,active: 79.4 µM,–
COc1ccc(-c2[nH]c(-c3cccc(OC)c3)nc2SCC(=O)NCc2ccco2)cc1,"inconclusive: 50.1 µM [inhibitor, partial curve]",–
COc1cc(/C=C2\SC(=S)N(CC(=O)Nc3ccccn3)C2=O)cc(OC)c1OC,"inconclusive: 10 µM [inhibitor, full curve]",–
Cc1cc(Br)ccc1NC(=O)CN(C)C(=O)c1ccc2ccccc2n1,"inconclusive: 89.1 µM [inhibitor, single point]",–
c1ccc(Nc2c(-c3ccco3)nc3ccccn23)cc1,active: 50.1 µM,–
O=C(CC1SC(=Nc2ccccc2F)N(CCN2CCOCC2)C1=O)Nc1ccc(F)cc1F (stereo not drawn),"inconclusive: 70.8 µM [inhibitor, single point]",–

Compound,Potency,"activity change, negative = inhibition"
Cc1[nH]c2ccccc2c1C(=O)COC(=O)c1ccc([N+](=O)[O-])s1,"inconclusive: 39.8 µM [inhibitor, partial curve]",–
COc1ccc(C(=O)NNC2=CC(=O)CC(C)(C)C2)cc1OC,inactive,–
Cc1c(C#N)c(O)[nH]c(=O)c1N=Nc1ccc(Br)cc1C(=O)O,"inconclusive: 39.8 µM [inhibitor, partial curve]",–
CC(=O)c1ccc(S(=O)(=O)Nc2cccc(-n3cnnn3)c2)cc1,active: 50.1 µM,–
Cc1nn2c(=O)cc(COC(=O)c3ccc(NC(=O)c4cccs4)cc3)nc2s1,inactive,–
COc1ccc(-c2cn3c(n2)CCC3)cc1,"inconclusive: 89.1 µM [inhibitor, single point]",–
O=C(O)c1cc(-c2ccco2)nc2ccccc12,–,inconclusive: -63.7% [inhibitor]
COc1ccc2[nH]c3c(=O)n(CCCC(=O)NC4CCCCC4C)c(=S)[nH]c3c2c1 (stereo not drawn),"inconclusive: 89.1 µM [inhibitor, single point]",–
O=C1C=C(c2cccc(Cl)c2O)C[C@@H](c2ccc3c(c2)OCO3)C1,"inconclusive: 79.4 µM [inhibitor, single point]",–
Cc1c(CCC(=O)NCCCn2ccnc2)c(=O)oc2cc3occ(C(C)(C)C)c3cc12,"inconclusive: 50.1 µM [inhibitor, partial curve]",–
COc1ccc(OC)c(NC(=O)C23CC4CC(C2)CC(n2cnc(Br)n2)(C4)C3)c1,"inconclusive: 89.1 µM [inhibitor, single point]",–
O=C(CN1c2ccccc2Sc2ccccc21)N/N=C/c1ccc([N+](=O)[O-])cc1,"inconclusive: 25.1 µM [inhibitor, full curve]",–
CC1=C(C(=O)N2CCCC(N3CCN(c4cccc(C(F)(F)F)c4)CC3)C2)OCCO1 (stereo not drawn),inactive,–
O=C(NNC(=O)c1cc2cc3ccccc3nc2s1)c1cccc(C(F)(F)F)c1,inactive,–
Cc1ccc2nc3c(cc(S(=O)(=O)c4ccccc4)c(=N)n3Cc3ccco3)c(=O)n2c1,"inconclusive: 89.1 µM [inhibitor, single point]",–
Cc1ccn(CCC(=O)N2CCc3ccccc32)n1,inactive,–
Cc1cccc(NC(=O)C2(C)Cc3ccccc3C(=O)O2)c1 (stereo not drawn),"inconclusive: 70.8 µM [inhibitor, single point]",–
O=c1cc2oc3cc(O)c(O)cc3c(-c3ccccc3O)c-2cc1O,active: 7.94 µM,–
O=C(CNCc1ccccn1)Nc1cc(C(F)(F)F)ccc1N1CCOCC1,active: 44.7 µM,–
CN1CCc2cccc3c2[C@@H]1Cc1ccc(O)c(O)c1-3,active: 35.5 µM,–
CC(C)C[C@H](CO)Nc1nc(N(C)c2cccc(Cl)c2)c2ncn(C(C)C)c2n1,"inconclusive: 50.1 µM [inhibitor, partial curve]",–
C=CCn1c(-c2csc(-c3ccc(Cl)cc3)n2)n[nH]c1=S,inactive,–
O=C(N/N=C/c1ccccn1)c1cc(-c2ccc3ccccc3c2)n[nH]1,"inconclusive: 89.1 µM [inhibitor, single point]",–
O=C(c1ccc(Oc2ccc([N+](=O)[O-])cc2Cl)cc1)N1CCCC1,"inconclusive: 79.4 µM [inhibitor, single point]",–
COC(=O)c1cc(S(=O)(=O)NCCc2cccc(C)c2)cn1C,"inconclusive: 89.1 µM [inhibitor, single point]",–

Compound,Potency,"activity change, negative = inhibition"
c1cncc(-c2nc(NCCCn3ccnc3)c3ccccc3n2)c1,active: 10 µM,–
CCCn1c(CCC(=O)Nc2cccc(CC)c2)nc2cccnc21,"inconclusive: 89.1 µM [inhibitor, single point]",–
Cc1ccc(-n2c(C)nc3c(cnn3-c3ccccc3Cl)c2=O)cc1C,inactive,–
Cc1ccc(-c2csc(N3CCN(CCCn4c(-c5ccncc5)nc5ccccc54)CC3)n2)cc1,"inconclusive: 39.8 µM [inhibitor, partial curve]",–
CS(=O)(=O)c1nc(-c2ccccc2)c(-c2ccccc2)[nH]1,"inconclusive: 70.8 µM [inhibitor, single point]",–
COC(=O)COc1cccc(NC(=O)c2ccc(C)cc2)c1,"inconclusive: 89.1 µM [inhibitor, single point]",–
CC(C)(C)NC(=O)CN(C(=O)C1CSC(=O)C1)c1ccccc1F (stereo not drawn),"inconclusive: 79.4 µM [inhibitor, single point]",–
CCOc1ccccc1C(=O)Nc1cc2c(cc1N1CCOCC1)n(C)c(=O)n2C,"inconclusive: 44.7 µM [inhibitor, partial curve]",–
COc1ccccc1C1=Nc2cccc3cccc(c23)N1,active: 39.8 µM,–
COc1cc(-c2nnc(SCC(=O)Oc3ccc(C)cc3C)o2)cc(OC)c1OC,"inconclusive: 89.1 µM [inhibitor, single point]",–
Cc1ccc(CNC(=O)c2nc(S(=O)(=O)Cc3ccc(C)cc3)ncc2Cl)cc1,inactive,–
CC(Sc1nnc(NCc2ccccc2)s1)C(=O)Nc1ccc2c(c1)C(=O)c1ccccc1C2=O (stereo not drawn),"inconclusive: 31.6 µM [inhibitor, partial curve]",–
C=CCn1c(SCC(=O)c2ccc(O)c(O)c2)nnc1-c1ccc(OC)cc1,inactive,–
O=[N+]([O-])c1cc(-c2cnc3ccccc3n2)ccc1Oc1ccc(Cl)cc1,"inconclusive: 31.6 µM [inhibitor, full curve]",–
O=[N+]([O-])c1ccccc1S(=O)(=O)Nc1ccn(Cc2c(F)cccc2Cl)n1,inactive,–
COc1ccc(C2(c3ccc(OC)cc3)NC(=O)N(CC(=O)Nc3ccc(C(N)=O)cc3)C2=O)cc1,"inconclusive: 89.1 µM [inhibitor, partial curve]",–
COc1ccc(C(=O)NCC(=O)OCC(=O)N(C)c2ccccc2)cc1,inactive,–
CCOc1ccc(C(=O)Nc2ccc3nc(SCC(=O)N(C)c4ccccc4)sc3c2)cc1,inactive,–
COc1ccc(NC(=S)N/N=C/c2cccn2Cc2ccc(F)cc2Cl)cc1,active: 17.8 µM,–
COc1cccc(C(=O)Nc2ccc(-c3nnc(-c4ccco4)o3)cc2)c1,inactive,–
Nc1nc(SCC(=O)N2N=C(c3ccc(Cl)cc3)CC2c2ccco2)n[nH]1 (stereo not drawn),"inconclusive: 79.4 µM [inhibitor, single point]",–
CC(C)c1ccc(NC(=S)NCCc2c[nH]c3ccccc23)cc1,active: 35.5 µM,–
CCN(CC)S(=O)(=O)c1cccc(C(=O)N/N=C/c2c(C)nn(-c3ccccc3)c2Cl)c1,"inconclusive: 56.2 µM [inhibitor, partial curve]",–
